# Test results as given in PubChem BioAssay AID662 (National Center for Advancing Translational Sciences (NCATS), 2007).
# About 1,800 (2.5%) of roughly 71,000 compounds were called active. The shares of active, inactive and inconclusive entries below differ from those in the screen. Calls come from the whole dose curve; as a rule, active = well fitted activation curve with a large enough effect in the signal ratio, with a control signal flat (not every such curve was filed as active); inconclusive = small, poorly fitted or top-dose-only effect, or effect the other way, or a change in a side signal; inactive = flat fitted curve, though single readings scatter; the % refers to the signal ratio. Where the call is inconclusive, the potency comes from a doubtful curve fit.
# Assay: Cell signaling CRE-BLA (Fsk stim); for activity change, negative = inhibition: % of control where 0% means no effect
# Conditions: CHO CRE-bla reporter (cAMP response element driving beta-lactamase), forskolin EC10, beta-lactamase ratio; activity change, negative = inhibition: at 38.2 µM (top of the series) unless noted
# In short: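 Modulation of forskolin signalling: compounds in titration series added with EC10 NKH 477 to CHO cells carrying a CRE-driven beta-lactamase reporter, 3 h, 37C. CCF4 FRET ratio (460/530 nm, ex 405 nm) gives %activity and AC50.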
# Potency is the fitted concentration of half-maximal effect; tags give direction and shape of the fitted curve.
SMILES,Potency,"activity change, negative = inhibition"
CCCCn1c(=N)n(CC(O)COc2ccccc2)c2ccccc21 (centres undefined),inactive,
CC(C)OP(=O)(c1ccc(N(C)C)cc1)C(O)c1c(Cl)cccc1Cl (centres undefined),,inconclusive: -24.3%
O=C(Nc1ccccc1)OC1C2CCC1C(N1CCCCC1)CC2 (centres undefined),inactive,
COc1ccc(-c2noc(CSc3nnc(Cc4ccccc4)n3-c3cccc(C)c3)n2)cc1OC,"inconclusive: 20 µM [rising, single point]",
COCCn1c(SCC(=O)Nc2ccccc2)nc2c1c(=O)[nH]c(=O)n2C,,inconclusive: 24.3%
Cc1ccc(C)c(N(CC(=O)NCCSCc2ccco2)S(C)(=O)=O)c1,,inconclusive: -8.1%
CCN(CCCNC(=O)COc1cc(=O)n(C)c2ccccc12)c1cccc(C)c1,"inconclusive: 12.6 µM [rising, partial curve]",
CCNc1ncc2nc(CCc3ccccc3)c(=O)n(Cc3cccc(OC)c3)c2n1,,inconclusive: 14.2%
CCCN1CCN(C(c2cc3cc(OCC)ccc3[nH]c2=O)c2nnnn2C2CCCCC2)CC1 (centres undefined),inactive,
Nc1c(C(=O)NCc2ccc3c(c2)OCO3)c2nc3ccccc3nc2n1CCCN1CCOCC1,active: 12.6 µM,
O=C(NCC1CCCO1)c1cccs1 (centres undefined),inactive,
C=C(C)CSc1nc(N)c(C#N)c(-c2ccc(C)cc2)c1C#N,,inconclusive: 26.2%
Cc1ccc(C2CC(C(F)F)n3ncc(C(=O)Nc4cnn(Cc5ccccc5C)c4)c3N2)cc1 (centres undefined),"inconclusive: 2 µM [falling, partial curve]",
Cc1csc(NC(=O)CCNS(=O)(=O)c2ccc3c(c2)c(=O)n(C)c(=O)n3C)n1,"inconclusive: 25.1 µM [rising, single point]",
Oc1ccc(O)cc1,"inconclusive: 2.51 µM [falling, partial curve]",
COC(=O)[C@@]1(Cc2ccc(F)cc2)[C@H]2c3cc(C(=O)N4CCCC4)n(CCc4ccc(O)c(O)c4)c3C[C@H]2CN1C(=O)c1ccccc1,inactive,
COc1ccc(S(=O)(=O)N2CC(C)N(S(=O)(=O)c3ccc(OC)cc3)CC2C)cc1 (centres undefined),"inconclusive: 1 µM [rising, single point]",
O=C(c1cccn2c(=O)c3cc(Cl)ccc3nc12)N1CCN(Cc2ccc3c(c2)OCO3)CC1,,inconclusive: 14.7%
COc1ccccc1CNc1nc(-c2ccc(C(=O)N(C)C)cc2)nc2ccccc12,"inconclusive: 6.31 µM [rising, partial curve]",
Cc1sc2nc(SCc3nnc(-c4cccs4)o3)n(C3CCCC3)c(=O)c2c1C,,inconclusive: 89.8%
CCOc1ccc(N(CC(=O)NC2CCCC2)S(=O)(=O)c2c(C)[nH]c(=O)[nH]c2=O)cc1,inactive,
COCCn1c(C)cc(C(=O)CSc2nc(C)cc(C)c2C#N)c1C,,inconclusive: 19.5%
O=C(C1CC1)N1CCc2cc(Br)cc(S(=O)(=O)NC3CCCCC3)c21,"inconclusive: 10 µM [rising, partial curve]",
COc1ccc(CNC(=O)c2cc3c(=O)n4ccccc4nc3n(CC3CCCO3)c2=N)cc1 (centres undefined),"inconclusive: 2.51 µM [rising, full curve, poor fit]",
Cc1noc(C)c1CSc1ncnc2sc(C)c(C)c12,"inconclusive: 2.51 µM [rising, single point]",

SMILES,Potency,"activity change, negative = inhibition"
Cn1cc(-c2nc3cnc(Oc4cccc(Cl)c4)nc3n(CCC#N)c2=O)c2ccccc21,"inconclusive: 1 µM [rising, full curve]",
Cc1ccc(-c2nn(C)c(=O)c3ccccc23)cc1S(=O)(=O)N1CCOCC1,active: 3.16 µM,
C#C[C@@]1(O)CC[C@@H]2[C@@H]3CCC4=CC(=O)CC[C@@H]4[C@H]3CC[C@]21CC,inactive,
Cc1c(NS(=O)(=O)c2ccc3c(c2)n(C)c(=O)n3C)c(=O)n(-c2ccccc2)n1C,"inconclusive: 10 µM [falling, partial curve]",
CSC1=C(C#N)C2(CCCC2)C(C#N)=C(N)N1,"inconclusive: 3.16 µM [rising, partial curve, poor fit]",
CCCSc1nnc(Sc2nnnn2-c2ccccc2)s1,"inconclusive: 3.98 µM [falling, partial curve]",
O=C(COc1ccccc1)NC1CCN(Cc2ccccc2)CC1,"inconclusive: 25.1 µM [rising, single point]",
CSCC[C@H](NC(=O)NCc1ccc(F)cc1)C(=O)O,inactive,
COC(=O)c1ccc(CSc2nc3sc4c(c3c(=O)n2C)CCCC4)o1,"inconclusive: 3.16 µM [rising, single point]",
CCN(CC)CCCN(Cc1cc2cc3c(cc2[nH]c1=O)OCCO3)C(=O)Nc1ccc(F)cc1,"inconclusive: 12.6 µM [rising, single point]",
[O-][n+]1onc2c1CCc1nnccc1-2,"inconclusive: 3.98 µM [falling, single point]",
Cc1nc(N=Nc2ccc(C(=O)O)cc2)c(COP(=O)(O)O)c(C=O)c1O,inactive,
CCCN(CCC)S(=O)(=O)c1ccc(NS(C)(=O)=O)cc1,"inconclusive: 5.01 µM [rising, single point]",
CN(C)S(=O)(=O)NCc1ccc2c(c1)OCO2,,inconclusive: -13.9%
CCCCCC(C)n1[nH]c(=O)c2c(C)cc(C)nc21 (centres undefined),"inconclusive: 12.6 µM [rising, single point]",
COCC(=O)N1CCC[C@@]2(CCN(C(=O)Nc3ccc(OC)cc3)C2)C1,inactive,
Cc1ccsc1/C=C\C1=NCCCN1C,inactive,
O=C(COc1ccc(Cl)cc1Cl)Nc1ccc2nc3n(c(=O)c2c1)CCCC3,"inconclusive: 12.6 µM [rising, partial curve]",
O=C(CSc1nnc(NCc2ccccc2)s1)c1ccco1,"inconclusive: 5.01 µM [falling, single point]",
c1ccc(Oc2ccccc2)cc1,inactive,
CCOC(=O)Cn1cc(C(=O)c2ccco2)c2ccccc21,inactive,
CN(C)Cc1nc2c([nH]1)c(=O)n(C)c(=O)n2C,inactive,
c1cncc(-c2nc3cc(Cc4ccc5oc(-c6cccnc6)nc5c4)ccc3o2)c1,inactive,
CCOC(=O)c1[nH]cnc1C(=O)Nc1cccc(N)n1,"inconclusive: 12.6 µM [rising, single point]",
